In PubChem BioAssay AID504832 (National Center for Advancing Translational Sciences (NCATS), 2011):
The campaign covered roughly 310,000 compounds. About 18,000 (5.8%) were called active. Inconclusive means that the source gave no clear call. Such entries were picked first, then a sample of the others. Calls come from the whole dose curve; as a rule, active = well fitted inhibition curve with a large enough effect; inconclusive = small, poorly fitted or top-dose-only effect, or another doubt; inactive = no such curve, though single readings can be large or run the other way. Potencies of inconclusive entries are left out as doubtful fits.

assay: Primary qHTS for delayed death inhibitors of the malarial parasite plastid, 48 hour incubation; settings: P. falciparum luciferase growth in erythrocytes; series mostly up to 28.7 µM
Outline: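 Compounds are pin-transferred into medium, infected erythrocytes (2% hematocrit, 0.1% parasitemia final) are added, and plates sit one parasite generation at 37 C in 5% CO2. Detection reagent is then added and luminescence measured.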
Potency is the fitted concentration of half-maximal effect; tags give direction and shape of the fitted curve.

SMILES	Potency
CC1CCCCN1C(=O)CCn1c(=O)oc2ccccc21 (stereo not given)	inactive
COCCc1ncc(CN2CCCC(C(=O)Nc3cccc(-c4cccc(C)c4)c3)C2)cn1 (stereo not given)	inconclusive [inhibitor, partial curve, poor fit]
Cn1c(-c2ccccc2)c(CCO)c2ccccc21	inactive
Fc1cccc(NC(=S)NC2CCCCCCC2)c1	inconclusive [inhibitor, single point]
CCN(CC)S(=O)(=O)c1ccc(N2CCOCC2)c(NC(=O)c2ccc(=O)n(C)n2)c1	inconclusive [inhibitor, partial curve, poor fit]
CCCCN1C(=O)C(=O)N(CC(=O)Nc2ccccc2C(=O)OCC)C1=O	inconclusive [inhibitor, partial curve, poor fit]
CC1(C)CC(NS(=O)(=O)c2ccc(Cl)cc2)CC(C)(C)N1	inconclusive [inhibitor, single point]
COc1ccc(N2CCN(C(=O)c3ccc4c(c3)CC(c3ccccc3)OC4=O)CC2)cc1 (stereo not given)	inconclusive [inhibitor, single point]
CC(=O)c1ccc(N=Cc2c(O)n(-c3cc(Cl)ccc3N3CCOCC3)c(=O)c3ccccc23)cc1	active: 0.657 µM
Cc1cc(C)nc(CCNC(=O)c2cc(COc3c(F)cccc3F)on2)n1	inconclusive [inhibitor, partial curve, poor fit]
CC1CCCCC1NC(=O)CN1CCN(S(=O)(=O)c2ccc(Br)s2)CC1 (stereo not given)	inconclusive [inhibitor, single point]
Cc1ccc(-c2noc(CSc3nnc(CCc4ccccc4)n3-c3ccccc3)n2)cc1	inconclusive [inhibitor, single point]
C/C(=N\NC(=O)c1ccc(OC2OCCOC2Oc2ccc(C(=O)N/N=C(\C)c3ccncc3)cc2)cc1)c1ccncc1 (stereo not given)	active: 1.65 µM
O=C(Nc1ncc(Cc2cc(Cl)ccc2Cl)s1)c1ccc([N+](=O)[O-])cc1	inconclusive [inhibitor, partial curve, poor fit]
O=C(c1ccc([N+](=O)[O-])s1)N1CCN(c2ccc(C(F)(F)F)cn2)CC1	inconclusive [inhibitor, full curve]
CN(Cc1cccnc1)C(=O)CCCc1c[nH]c2ccccc12	inconclusive [inhibitor, partial curve]
CCN(Cc1cnn(C)c1)C(=O)c1ccc2nc(Cc3cccc(Cl)c3)oc2c1	inconclusive [inhibitor, partial curve, poor fit]
CCOC(=O)Cn1c(S(=O)(=O)Cc2ccccc2)nc2ccccc21	inactive
CC(C)C(NC(=O)c1cccs1)c1nnc(SCC(=O)Nc2nccs2)n1C (stereo not given)	inconclusive [inhibitor, partial curve]
Cc1ccc2c(C(=O)CN3CCN(C4CCCCC4)CC3)c(C)[nH]c2c1	active: 2.62 µM
COc1ccc(NC(=O)C(OC(=O)c2ccc([N+](=O)[O-])o2)c2ccccc2)cc1Cl (stereo not given)	inactive
CC(C)c1ccc(S(=O)(=O)N2CCN(C(=O)c3cccc(F)c3)CC2)cc1	inconclusive [inhibitor, single point]

SMILES	Potency
COc1ccc(C2CC(=O)C(C=NCCN3CCN(C(=S)Nc4ccccc4)CC3)=C(O)C2)cc1OC (stereo not given)	inconclusive [inhibitor, full curve, poor fit]
COc1ccc(-c2nc(C(=O)NCC3CCCO3)cc3c2[nH]c2ccccc23)cc1 (stereo not given)	active: 5.22 µM
COCC(C)NS(=O)(=O)c1ccc(C(=O)NC(Cc2ccccc2)c2ccccc2)cc1 (stereo not given)	inconclusive [inhibitor, partial curve, poor fit]
COc1nc(OCC#N)nc(N2CCCCC2)n1	inactive
Cc1ccc(S(=O)(=O)N2CCCC(NC(=O)N3CCN(c4ccccc4)CC3)C2)cc1 (stereo not given)	inconclusive [inhibitor, single point]
CCNC(=S)N(CCc1c(C)[nH]c2ccc(C)cc12)Cc1cccs1	inconclusive [inhibitor, single point]
C/C(=N\NC(=O)C1CCCN(S(=O)(=O)c2ccccc2)C1)c1ccccn1 (stereo not given)	active: 2.33 µM
O=C1CC(C(=O)Nc2cccc(F)c2)n2c(nc3ccccc32)N1 (stereo not given)	inconclusive [inhibitor, single point]
Cc1nn(-c2ccccc2)c(C)c1C(=O)OC(C)C(=O)NC1CCCCC1C (stereo not given)	inconclusive [inhibitor, single point]
CN=C(Nc1ccc(C(=O)OC)cc1)SC1CC(=O)N(c2ccccc2F)C1=O (stereo not given)	inconclusive [inhibitor, single point]
Cc1ccc(CN(C)C(=O)c2ccccc2NC(=O)c2ccccc2)o1	inconclusive [inhibitor, single point]
Cc1nn(C(C)C)c(C)c1[C@@H]1C[C@H]2CN(Cc3cccc(Cl)c3)C(=O)[C@]23CCCN13	inconclusive [inhibitor, partial curve]
COc1cccc(COc2ccccc2C2Nc3ccc(Br)cc3C(=O)N2NC(=O)c2ccncc2)c1 (stereo not given)	inconclusive [inhibitor, partial curve, poor fit]
CCn1c(NC(=O)c2nn(C)cc2Br)nc2ccccc21	inconclusive [inhibitor, single point]
CCOC(=O)C1CCN(C(=O)CSc2nc(N)cc(=O)[nH]2)CC1	inconclusive [inhibitor, full curve]
COC(=O)CNC(c1ccccc1)c1cc(Cl)ccc1NC(=O)c1cccc(Cl)c1 (stereo not given)	inconclusive [inhibitor, single point]
CC1=CC(C)(C)Nc2ccc(OC(=O)c3ccco3)cc21	active: 11.7 µM
Cc1cc(C)c(S(=O)(=O)/N=C2/C=C(Sc3ncn[nH]3)C(=O)c3ccccc32)cc1C	active: 1.65 µM
CCOC(=O)c1nn(-c2ccc(Cl)cc2)c2nc(CC)c(C#N)c(=O)n12	inconclusive [inhibitor, single point]
CC(=O)Nc1ccc(NC(=O)C(C)OC(=O)C2(c3ccc(F)cc3)CCCC2)cc1 (stereo not given)	inconclusive [inhibitor, partial curve, poor fit]
CCOc1ccc(/C=N/NC(=O)c2ccccc2O)cc1CN1CC2CC(C1)c1cccc(=O)n1C2 (stereo not given)	inconclusive [inhibitor, partial curve]
O=C(CCS(=O)(=O)Cc1ccccc1)Nc1nc2c(s1)CCCC2	inactive

SMILES	Potency
CCc1ccc(C(O)(CNCc2ccccc2)c2ccccc2)cc1 (stereo not given)	inconclusive [inhibitor, full curve]
COc1ccccc1CNS(=O)(=O)c1cc2c3c(c1)CCN3C(=O)CC2	inconclusive [inhibitor, single point]
CCCN(C(=O)c1cccc(-n2cccc2)c1)c1c(N)n(Cc2ccccc2)c(=O)[nH]c1=O	inconclusive [inhibitor, partial curve, poor fit]
Cc1ccc(/C=[N+](/C)[O-])cc1	inconclusive [inhibitor, single point]
Cc1nccn1CCCNC(=O)CC1C(=O)NCCN1Cc1ccccc1C(F)(F)F (stereo not given)	inconclusive [inhibitor, full curve, poor fit]
CC1CCc2[nH]c3ccc(C(=O)N(C)CC(=O)Nc4ccccc4C(F)(F)F)cc3c2C1 (stereo not given)	inconclusive [inhibitor, single point]
O=C(Nc1cccc(OC(F)(F)F)c1)c1ccc(Br)o1	inconclusive [inhibitor, partial curve]
CSc1nc(N)c(N=Nc2ccc([As](=O)(O)O)cc2)c(=O)[nH]1	active: 2.62 µM
C/C(=N\NS(=O)(=O)c1ccc(C)cc1)c1ccc(C)s1	inactive
Cc1ccc(NC(=O)C2CC(=O)N(c3ccc4c(c3)OCCO4)C2)nc1 (stereo not given)	inactive
O=C(NCC(c1cccnc1)N1CCN(c2ccc(F)cc2)CC1)c1ccccc1 (stereo not given)	inconclusive [inhibitor, partial curve]
Cc1nnc(SCc2ccc(Cl)cc2Cl)[nH]c1=O	inactive
O=S(=O)(c1ccc(Cl)s1)N1CCc2ccccc2C1	inactive
CC(NC(=O)c1cc(S(=O)(=O)N2CCCC2)cn1C)c1ccccc1 (stereo not given)	inactive
COc1ccc(C(=O)Nc2ccc3oc(-c4cccc(Cl)c4)cc(=O)c3c2O)cc1	inconclusive [inhibitor, single point]
Cc1ccc(CN2CCNC(=O)C2CC(=O)N(C)C2CCCCC2)cc1 (stereo not given)	inconclusive [inhibitor, single point]
O=[N+]([O-])c1cc(CN2CCCC2)ccc1Sc1ccc(Cl)cc1	inconclusive [inhibitor, single point]
CCOc1cc(/C=N/NC(=O)c2ccc(O)cc2)ccc1Oc1nc(Cl)ncc1F	inconclusive [inhibitor, full curve]
c1ccc(CNc2ccc3c(c2)ncn3C2CCCCC2)nc1	inconclusive [inhibitor, single point]
O=C(CSC1=NNC(c2ccccn2)S1)Nc1ccccc1 (stereo not given)	inconclusive [inhibitor, single point]
CC1CN(S(=O)(=O)c2cccc(-c3cn4ccccc4n3)c2)CC(C)O1 (stereo not given)	inconclusive [inhibitor, partial curve, poor fit]
